The campaign covered roughly 91,000 compounds. About 290 (0.32%) were called active. This list was built around the results that the source calls inconclusive (neither active nor inactive); the mix of calls is not that of the screen. The call rests on the fitted dose curve; in most records, active means well fitted inhibition curve with a large enough effect; inconclusive means small, poorly fitted or top-dose-only effect; inactive means no such curve, though single readings can be large or run the other way. A potency beside an inconclusive call is a rough fit, not a confirmed value.
The compounds below were run against Single-stranded DNA cytosine deaminase (Homo sapiens) (UniProt Q9GZX7) (assay: Primary qHTS assay for inhibitors of Activation Induced Cytidine Deaminase (AID): AID signal). Details: AID deamination FRET fluorescence, UDG-coupled, 4 h; series mostly up to 115 µM.
Sequence of UniProt Q9GZX7 (Q9GZX7 whole entry, looked up): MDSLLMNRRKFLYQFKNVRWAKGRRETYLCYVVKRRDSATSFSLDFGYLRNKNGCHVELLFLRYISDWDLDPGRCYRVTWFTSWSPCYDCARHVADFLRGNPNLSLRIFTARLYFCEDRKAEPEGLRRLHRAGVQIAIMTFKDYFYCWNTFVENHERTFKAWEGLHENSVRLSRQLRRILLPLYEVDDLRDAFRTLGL
Further: nearly all actives have a fitted effect of over 25% in size.
Potency means the concentration at half of the fitted maximal effect; tags describe the fitted curve by direction and shape.

Structure (SMILES) | Potency
CC(C)c1nnc2ccc(N3CCCC(C(=O)O)C3)nn12 (centres undefined) | inactive
COc1ccc(Cl)cc1NC(=O)NCC1CCN(Cc2ccccc2F)CC1 | inconclusive: 79.4 µM [inhibitor, partial curve, poor fit]
CCOc1ccc(Nc2c(S(=O)(=O)c3ccccc3)cnc3ccccc23)cc1 | inconclusive: 25.1 µM [inhibitor, full curve, poor fit]
CN(Cc1ccco1)S(=O)(=O)c1nnc(NC(=O)c2cccc(Cl)c2)s1 | inconclusive: 79.4 µM [inhibitor, partial curve, poor fit]
CCCN(CCC)C(=O)c1cc2c(=O)n3cccc(C)c3nc2n1C | inconclusive: 100 µM [inhibitor, partial curve, poor fit]
CCCCOc1ccc(C(=O)N(Cc2nc(-c3ccc(Cl)cc3)no2)C(C)C)cc1 | inconclusive: 39.8 µM [inhibitor, full curve]
CCc1ccccc1Nc1nn2c(=O)c3ccc(C(=O)NCc4ccccc4Cl)cc3nc2s1 | inconclusive: 31.6 µM [inhibitor, partial curve, poor fit]
CC(C)(C)C1CCc2nc(SCC(N)=O)c(C#N)c(C(F)(F)F)c2C1 (centres undefined) | inconclusive: 44.7 µM [inhibitor, partial curve]
C=C(C)Cn1c(N2CCOCC2)nc2c1c(=O)[nH]c(=O)n2C | inactive
CCOc1ccc(-c2cc(C(=O)Oc3ccc(F)cc3)no2)cc1 | inactive
COc1cc2ncc3c(-c4ccccc4)nn(-c4ccc(C)cc4)c3c2cc1OC | inconclusive: 20 µM [inhibitor, full curve, poor fit]
Cc1ccc(C)c(Nc2nnc(-c3ccc(C)c(S(=O)(=O)N4CCCCC4)c3)c3ccccc23)c1 | inconclusive: 8.91 µM [inhibitor, partial curve, poor fit]
COc1ccc(-c2nc(Cn3c(SCc4ccc(F)cc4)nc4cccnc43)c(C)o2)cc1 | inconclusive: 17.8 µM [inhibitor, full curve, poor fit]
Cc1ccc([N+](=O)[O-])cc1S(=O)(=O)N1CCn2cccc2C1c1ccc(F)c(F)c1 (centres undefined) | inconclusive: 20 µM [inhibitor, partial curve, poor fit]
Cc1ccc(C)c(CN2C(=O)c3ccccc3Sc3ccc(C(=O)NCc4ccc5c(c4)OCO5)cc32)c1 | inconclusive: 35.5 µM [inhibitor, single point]
COc1ccc(-c2noc(CSc3nnc(-c4ccncc4)n3-c3ccc(C)c(C)c3)n2)cc1 | inconclusive: 50.1 µM [inhibitor, partial curve, poor fit]
Cc1ccc2onc(CC(=O)N3CCN(c4cccc(C)c4C)CC3)c2c1 | inconclusive: 22.4 µM [inhibitor, partial curve, poor fit]
Cc1cc(C=O)c(C)n1C | inactive
CCOc1ccc(NC(=O)Cn2c(=O)oc3cc(S(=O)(=O)N4CCC(C)CC4)ccc32)cc1 | inactive
O=C(NC1CCCC1)C(Cl)c1ccccc1 (centres undefined) | inactive

Structure (SMILES) | Potency
COc1ccc(OC)c(CCNC(=O)c2cc3c(=O)n(C)c4ccccc4c3n2C)c1 | inconclusive: 35.5 µM [inhibitor, full curve, poor fit]
Cc1ccc(NC(=O)c2nc(-c3ccncc3)no2)c(Cl)c1 | inconclusive: 89.1 µM [inhibitor, partial curve, poor fit]
O=C(COc1ccc(-c2nnc(Nc3ccccc3)c3ccccc23)cc1)N1CCCCC1 | inconclusive: 12.6 µM [inhibitor, partial curve, poor fit]
COc1ccc(C(=O)Oc2ccc(C(c3c(C)[nH][nH]c3=O)c3c(C)[nH][nH]c3=O)cc2OC)cc1 | inconclusive: 56.2 µM [inhibitor, partial curve, poor fit]
CC(C)c1ccc(NC(=O)CCNS(=O)(=O)c2cccc3nsnc23)cc1 | inactive
Cc1cccc(C(=O)Nc2ccc(S(=O)(=O)N3CCCCC3c3cccnc3)cc2)c1 (centres undefined) | inconclusive: 50.1 µM [inhibitor, single point]
CCOc1ccccc1CNc1nc2nc(C)c(CC(=O)OC)c(=O)n2[nH]1 | inconclusive: 39.8 µM [inhibitor, partial curve]
CCCn1ccc2c(OCC(=O)Nc3ccc(OC)c(OC)c3)cccc2c1=O | inactive
COc1ccccc1CNC(=O)c1ccc(CSc2nc3ccncc3n2Cc2cccc(F)c2)cc1 | inconclusive: 89.1 µM [inhibitor, single point]
COc1ccccc1N1CCN(C(=O)c2ccc3c(c2)CCN3S(=O)(=O)c2ccccc2)CC1 | inconclusive: 79.4 µM [inhibitor, partial curve, poor fit]
Cc1ccc(CNC(=O)C(C)n2c(=O)cc(-c3ccccc3)c3c(C)nn(C)c32)cc1 (centres undefined) | inconclusive: 20 µM [inhibitor, single point]
CCc1ccc(NC(=O)c2cnn3c2NC(C(=O)O)=CC3c2cc(OC)ccc2OC)cc1 (centres undefined) | inactive
COc1ccc(CNC(=O)c2ccc(-c3nc(CS(=O)c4ccc(C)cc4)c(C)o3)cc2)cc1 (centres undefined) | inconclusive: 39.8 µM [inhibitor, full curve, poor fit]
CCc1c(C)nc2nc(-c3ccccc3)nn2c1NCc1ccc(C)cc1 | inconclusive: 89.1 µM [inhibitor, partial curve, poor fit]
COc1cccc2[nH]c(C(=O)NCc3ccc4c(c3)CCN4C(=O)c3ccc(F)cc3)cc12 | inconclusive: 31.6 µM [inhibitor, full curve]
COc1ccc(C(=O)ON=C2CCCCC2)cc1I | inconclusive: 39.8 µM [inhibitor, single point]
Cc1ccc(OC(=O)CSc2nnc(-c3cccs3)o2)c(C)c1 | inconclusive: 39.8 µM [inhibitor, partial curve, poor fit]
CCN(CC)CCNC(=O)c1ccc2c(=O)n3nc(Nc4ccccc4)sc3nc2c1 | active: 70.8 µM
Cc1ccc(CNC(=O)C2CCCN(Cc3nc(-c4cccc(C)c4)oc3C)C2)cc1 (centres undefined) | inconclusive: 50.1 µM [inhibitor, partial curve, poor fit]

Reference: PubChem BioAssay AID1347428 (National Center for Advancing Translational Sciences (NCATS), 2020)
